Measurements as given in ChEMBL document CHEMBL4888484, “Replenishing the malaria drug discovery pipeline: Screening and hit evaluation of the MMV Hit Generation Library 1 (HGL1) against asexual blood stage Plasmodium falciparum ,using a nano luciferase reporter read-out” (2022).
About 540 (0.36%) of roughly 150,000 compounds showed an effect of 50% or more. This is one part of the list.

Each compound was assayed on Plasmodium falciparum (assay: Primary screen in NF54 nanoGlo assay, in single point, at 2uM, 72h; a lower Z score goes with more inhibition). Settings: timepoint 72 hour.
Assay type: functional, Erythrocyte

Structure (SMILES)	% Inhibition [%]	Z score
Cc1cnc([C@H](C)NC(=O)c2cc3n(n2)CCC3)s1	34	-3.85
CC(C)c1ncsc1C(=O)Nc1ccsn1	-25	2.75
Cc1ccc2c(c1)cc(CN1CC[C@H](CNC(=O)CC3CC3)C1)n2C	-9	1.59
N#Cc1c(NC(=O)c2cccc3ccccc23)sc2c1CCC2	-4	0.61
Cc1cc(C)n(CC(=O)N2CCOc3ccc(C(=O)N4CCCC4)cc3C2)n1	-30	2.94
CC1OCCC1C(=O)Nc1ccc(-n2cc(C#N)c(N)n2)cc1 (stereo not drawn)	-2	0.27
COc1ccc2[nH]c3c(c2c1)CCN(C(=O)c1ccc(C)c(C)c1)[C@H]3COCc1ccccc1	0	0.02
CC1CCN(c2nc(N3CCN(C)CC3)nc3c2CN(C(=O)c2ccccc2Cl)CC3)CC1	-2	0.24
C[C@H]1CS(=O)(=O)C[C@H]1NC1CC2(CCCCC2)C1	28	-3.14
Cc1nc(-c2csc(S(=O)(=O)N3CCC[C@H](C(=O)NC4CCCCCCC4)C3)c2)no1	-4	0.46
O=C(Nc1ccc(N2CCCCC2)cc1)c1cccnc1O	-4	0.76
O=C(Nc1ccc(C(F)(F)F)cc1)N1CCN2C(=O)NC[C@H]2C1	-10	1.92
Cn1ccnc(N2CCCN(c3cccc(F)c3F)CC2)c1=O	2	-0.23
Fc1ccc2c(c1)CCC[C@@H]2NCCc1nnc2ccccn12	-11	1.38
Cc1cc(C)c(C(=O)N[C@@H](CC2CC2)C(=O)O)s1	-9	1.68
Cc1cc(C)n(-c2ccc(C(=O)N3CCN(c4nonc4C)CC3)cc2)n1	-17	1.84
CC(C)N1CCN(C(=O)c2cc3c(=O)[nH]c(-c4ccccc4)cn3n2)CC1	-13	2.15
Cc1nc(N2CCCC2)nc(C)c1NC(=O)c1cccs1	-8	1.32
O=c1c2cc(-c3ccc(F)cc3)nn2ccn1C[C@H](O)c1ccccc1Cl	-5	0.59
CCn1nc(NC(=O)Nc2nnc(Cc3cccc(OC)c3)s2)cc1C1CC1	3	-0.3
Cc1nn(CN(CCC#N)C[C@H]2CCOC2)c(C)c1Br	-5	0.98

Structure (SMILES)	% Inhibition [%]	Z score
CCc1nc2n(n1)CC(NC(=O)NCC(C)(O)C1CCCCC1)CC2 (stereo not drawn)	-13	1.87
CC[C@H]1CCc2c(nc3ccccc3c2O)O1	2	-0.28
Cc1cc(C)nc(N2CCCN(c3cccc(F)c3F)CC2)n1	-19	2.34
COc1cc([C@H]2CC(O)=Nc3c2c(-c2ccccc2)nn3-c2ccccc2)ccc1O	37	-1
O=C(c1cccc(Cn2ccnc2)c1)N1CCOC2CCCCC21 (stereo not drawn)	-10	1.38
O=C(c1cc2c(cn1)OCCC2)N1CCN(c2ncccn2)CC1	-13	2.57
OC(CC1CCCN1CCc1ccncc1)c1cccs1 (stereo not drawn)	4	-0.36
C=C(C)COc1ccc(NC(=O)[C@@H](N)C2CCCCC2)cc1	3	-0.61
COc1ccccc1-c1csc2c1NC(=O)C[C@@H]2c1ccc2c(c1)OCO2	2	-0.25
CN(C)c1nccc(CNC(=O)c2ccc3c(c2)OCO3)n1	-2	0.46
CCc1ccc(S(=O)(=O)Nc2ccc3[nH]c(=O)sc3c2)cc1	-4	0.55
Cc1cc(N2CCC(NC(=O)c3ccnc(-c4ccccc4)c3N)CC2)nc(C)n1	-10	1.26
O=C(NS(=O)(=O)c1cccnc1)C1=CCCCCC1	-7	0.82
c1c(CNc2nc(C3CC3)nc3c2CCC3)nnn1C1CCC1	-3	0.55
O=C(COCc1ccccc1)N1[C@H]2CCNC[C@@H]1CC2	-10	1.12
O=C(O)c1ccc(NCc2c[nH]nc2-c2cccs2)cc1	-14	2.22
Cc1cc(C(=O)N(Cc2cccn2C)C2CC2)c(C)o1	-7	1.4
COc1ccc(NC(=O)COc2cccc3c2[C@@H](O)CC(C)(C)O3)cc1	5	-0.75
C=CCNC(=O)C[C@@H]1CCN(C(=O)NC(C)C)C[C@@H]1CC	5	-0.75
O=C(O)c1cccc(CN2CCC[C@H](n3ccnn3)C2)c1Cl	-2	0.44
Nc1nnc(CCNC(=O)c2cccc(Cl)c2)s1	6	-0.81

Structure (SMILES)	% Inhibition [%]	Z score
COc1cccc(-c2ccc(N3CCCN(C(=O)CN(Cc4ccccc4)C(=O)c4ccc5c(c4)OCO5)CC3)nn2)c1	19	-1.85
O=C(N[C@H]1CO[C@H]2[C@@H]1OC[C@@H]2n1nnnc1-c1ccc2c(c1)OCO2)C1CCCCC1	-3	0.4
COc1ccc(N(C)S(=O)(=O)c2ccc3c(c2)C(=O)Nc2cc(Cl)ccc2O3)cc1	-10	1.38
CC(=O)Nc1cccc(NC(=O)Cn2c(=O)n(CCc3cccs3)c(=O)c3ccccc32)c1	36	-0.77
CCN(CCCC(=O)c1ccc(F)cc1)CCc1ccccc1	33	-4.3
C[C@H](NC(=O)Nc1ccnc2ccnn12)C(F)(F)F	-9	1.18
CN(Cc1cccc(C#N)c1)Cn1cc(Br)cn1	-6	0.93
COCc1ncc(-c2cn([C@@H](C)Cc3ccncc3)nn2)cn1	3	-0.43
O=C(Nc1ccc(N2CCCCC2)cc1)c1ccccc1NCc1cccnc1	-13	1.45
CC(C)c1csc(C(=O)N2CCn3nc(CO)cc3C2)n1	-6	1.15
CN(Cc1cc2cc(F)ccc2[nH]1)Cc1ccnn1C	-9	1.38
N#C[C@@]1(c2ccccc2OCc2ccccc2)CCC(=O)N1Cc1ccccc1	-10	1.37
COc1cc(NS(=O)(=O)c2ccc(C)s2)ccc1N1CCCCC1=O	-15	2.28
Cc1ccc(C)c(C(=O)COc2ccc(C)cc2C(=O)Nc2ccncc2)c1	-7	1.25
CC[C@H]1COCCN1C(=O)Nc1ccc(Oc2ccccc2)cc1	-7	1.26
Cc1cncc(C(=O)OCCc2c(C)n[nH]c2C)c1	-20	1.71
O=C(NCCc1ccccc1)N1CCC(CO)(C[C@H]2CCCCO2)CC1	-35	3.09
Cc1nnsc1C(=O)N1C[C@@H](CN2C[C@@H](C)O[C@@H](C)C2)[C@@H](CO)C1	0	0.06
Cc1ccc(Br)cc1C(N)=O	-2	0.28
O=C1NC2(CCCC2)C(=O)N1CC(=O)N1CCC[C@H]1c1ccc2c(c1)OCCCO2	-8	1.03
CCOC(=O)CCC(=O)N[C@H]1Cc2ccccc2O[C@@H]1C(F)(F)F	7	-0.84

Structure (SMILES)	% Inhibition [%]	Z score
Cc1sc2ncnc(NC[C@H]3CCCN3S(C)(=O)=O)c2c1C	-12	1.38
Cc1cc(=O)[nH]c(NC2CCCCC2)n1	2	-0.3
Cc1ncsc1CCS(=O)(=O)N1C[C@H](C)Oc2cc(F)ccc21	-12	1.05
COc1ccc(CCNC(=O)N2CC(c3nc(C4CC4)no3)C2)cc1	-11	2.18
Cc1nocc1NC(=O)N(C)C1(C(F)(F)F)CC1	9	-1.02
COc1cc(CN(C)Cc2nc(C)c[nH]2)ccc1OC[C@@H](O)CN1CCOCC1	-7	0.91
C[C@@H](NC(=O)N1CCN(C(=O)c2cccc(F)c2)CC1)c1cccc(O)c1	0	-0.02
O=C1C2CCCN2C(=O)N1C1CCN(c2ccc(F)c(Cl)c2)C1 (stereo not drawn)	-4	0.55
O=C(NCc1ccncc1)c1cccc(Nc2c(Oc3cccc(Cl)c3)cnn(-c3ccccc3)c2=O)c1	-8	0.96
CCn1nccc1C(=O)N1CCC(N2C[C@H](Oc3ccccc3)[C@@H]2c2ccncc2)CC1	-10	1.25
FC(F)(F)c1ccnc(NOCc2ccccc2)n1	-25	2.29
CN(Cc1cccnc1)Cc1cnc(NS(=O)(=O)c2ccccc2)nc1	2	-0.32
C[C@H](O)CN1CCC(n2nccc2NC(=O)c2ccc3c(c2)OCO3)CC1	-4	0.5
COc1ccc(-c2csc(CCNC(=O)c3cc(OC)c(OC)c(OC)c3)n2)cc1	2	-0.23
Cc1cc(=O)cc(C(=O)N[C@@H]2C[C@H]3OCC[C@@H]23)[nH]1	-7	1.24
CN(CCCC1CCCC1)c1nccnc1C(=O)O	-13	1.85
COc1ccccc1C(=O)Nc1ccc2c(c1)NC(=O)C[C@H]2c1ccc(O)cc1	0	0
COc1cccc(NC(=O)N2CC[C@H]3CC(=O)Nc4ccc(-c5cnn(C)c5)cc4OCC[C@H]3C2)c1	-2	0.26
COCC1(NC(=O)c2ccc(-c3cnccc3N)cc2)CCCC1	-5	0.82
CS(=O)(=O)c1ccc(N2CC[C@]3(C2)CC3(F)F)cc1	4	-0.6
CCn1nccc1C(=O)NCCc1ncc(C)n1C1CCCCCC1	-6	0.85
